# ± gives the standard deviation of the averaged measurements. The list shows a part of the results.
# Tested on: PfAP2-I AP2 domain 3 (GST-tagged)
# Test: gcPBM binding intensity (ln(normalized median fluorescence intensity)); higher = stronger DNA binding
# How it was run: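 Binding of GST-tagged P. falciparum DNA-binding domains, expressed in E. coli and used at about 25 μg on average, was carried out for 1 h in 1× PBS containing 1% milk, 0.2 mg/ml BSA, 0.5% salmon testes DNA and 0.03% Triton X-100. The target was an Agilent 4 × 180k array of primer-extended double-stranded 36-bp intergenic genomic probes plus negative controls, read with Alexa488 anti-GST antibody at 488 nm. Binding intensity is the highest Masliner-normalised natural-log median intensity across replicate spots of either probe orientation.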
row,Sequence,gcPBM binding intensity (ln)
1,AAAATAATATTTAATACACACATAATTACAATATAA [CACACA_site6510],7.77 ± 0.35
2,TACGTATTCATGTATAGTACTCTTTTTTTTAATAAA [XGTACX_site3299],7.61 ± 0.38
3,ACAAGTGTATATGTTATATATATATATATATATATA [CACACA_negctrl_site1686],9.51 ± 0.76
4,AAAGATAAAATATATACACACACATAAATACGTACA [CACACA_site8275],7.78 ± 0.45
5,CATACACGCGGACACACACACACACGCATATATAAC [CACACA_site6427],8.22 ± 0.42
6,ATTATATTTGAATGGTGTACTATAATAATGTAGTTT [XGTACX_site8069],8.48 ± 0.28
7,ACATATATATATATATAAATATATATGTATGTATTT [XGTACX_negctrl_site237],7.64 ± 0.34
8,GAATAAATTAAATTCACACATAAAATACAAAATACA [CACACA_site5495],7.68 ± 0.52
9,AAAGAAAATAGGTGTACACATAATAAATACAGCTAT [CACACA_site5917],8.34 ± 0.52
10,CTTATATTAATTATTACACACATATATATAAATGCA [CACACA_site770],8.05 ± 0.38
11,AAAACAAATAAGTAAACACACATATATAATATATAT [CACACA_site2586],7.79 ± 0.52
12,AAAAAAAAAAAAACTAGTACATATATATAGTATGAA [XGTACX_site6279],7.6 ± 0.42
13,ATTTATATTTTATATACACACATGAACTTATATGGA [CACACA_site3167],7.72 ± 0.43
14,GAATATAAAAGGAACGGTACAGAAAAAAAAAAAAAA [XGTACX_site3917],8.02 ± 0.81
15,TTTATTTTTTATATATCACTTAAAAAAAAAAAAAAA [CACACA_negctrl_site249],8.02 ± 0.67
16,ATGTAATATATTATATGTACATATTTTTATGTAGAT [XGTACX_site5945],8.02 ± 0.42
17,ATAACCTAATAATACACACACATGAATATATATAAT [CACACA_site4689],8.01 ± 0.44
18,CTTTTTTTTTTATGCACACACAATTATACATTCCTT [CACACA_site3877],10.4 ± 0.24
19,AATATAGTCTCACATACACACATATATATTTATATA [CACACA_site2503],7.83 ± 0.66
20,AATATATTTTTTTTTGGTACACAAGCACATCTATAC [XGTACX_site2183],8.2 ± 0.28
21,TTTCGATTATGTTTTTGTACGCAATATATTAATTCT [XGTACX_site3634],7.85 ± 0.48
22,CCATGATTATTAGATTGTACATAACATACAAATTGA [XGTACX_site314],7.68 ± 0.45
23,AATGTGCAGAAAAGTGGTACATATGATTGTTAAGAG [XGTACX_site1038],8.96 ± 0.6
24,ATGTCATATATATGTTGTACGAGTTTGTTTATGTAT [XGTACX_site1150],7.97 ± 0.57
